Where two headings read alike, the source gives them in different places.
Columns and labels:
A549 parental = assay: Crystal Violet cell proliferation assay, A549; settings: Homo sapiens, A549, 72 h
H1975 = assay: Crystal Violet cell proliferation assay, H1975; settings: Homo sapiens, NCI-H1975, 72 h
H1650 = assay: Crystal Violet cell proliferation assay, H1650; settings: Homo sapiens, NCI-H1650, 72 h
[1] = test system: A549/DDP (Cisplatin Resistant); assay: Crystal Violet cell proliferation assay, A549/DDP; settings: Homo sapiens, A549/DDP, 72 h

C#Cc1cccc(Nc2ncnc3cc4c(cc23)OCCOCCOCCO4)c1 [Icotinib]
IC50 (A549 parental; read-out: IC50 of TKIs A549, TKI + 7 uM DZ1-SIM Amide, 72 h): 3.3 µM | IC50 (A549 parental; read-out: IC50 of TKIs A549, TKI + 8 uM DZ1-SIM Amide, 72 h): 0.2 µM | IC50 (A549 parental; read-out: IC50 of TKIs A549, TKI + 8.5 uM DZ1-SIM Amide, 72 h): 1.4 µM | IC50 (A549 parental; read-out: IC50 of TKIs A549, TKI + 9 uM DZ1-SIM Amide, 72 h): 0.2 µM | IC50 (A549 parental; read-out: IC50 of TKIs A549, TKI alone, 72 h): 15.6 µM | IC50 (H1975; read-out: IC50 of TKI H1975, Example 5, TKI alone, 72 h): 8 µM | IC50 (H1975; read-out: IC50 of TKI H1975, TKI + 10 uM RO (RO4929097), 72 h): 37.3 µM | IC50 (H1975; read-out: IC50 of TKI H1975, TKI + 15 uM RO (RO4929097), 72 h): 13 µM | IC50 (H1975; read-out: IC50 of TKI H1975, TKI + 20 uM RO (RO4929097), 72 h): 28.8 µM | IC50 (H1975; read-out: IC50 of TKI H1975 Mean (95% CI), TKI + 5 uM DZ1-SIM Amide, 72 h): 3.4 µM | IC50 (H1975; read-out: IC50 of TKI H1975 Mean (95% CI), TKI + 6 uM DZ1-SIM Amide, 72 h): 0.1 µM | IC50 (H1975; read-out: IC50 of TKI H1975 Mean (95% CI), TKI + 7 uM DZ1-SIM Amide, 72 h): 0.04 µM | IC50 (H1650; read-out: IC50 H1650 Mean (95% CI), drug alone, 72 h): 10.2 µM | IC50 (H1650; read-out: IC50 of TKI H1650 Mean (95% CI), TKI + 4 uM DZ1-SIM Amide, 72 h): 1.8 µM | IC50 (H1650; read-out: IC50 of TKI H1650 Mean (95% CI), TKI + 5 uM DZ1-SIM Amide, 72 h): 0.9 µM | IC50 (H1650; read-out: IC50 of TKI H1650 Mean (95% CI), TKI + 6 uM DZ1-SIM Amide, 72 h): 0.02 µM | IC50 ([1]; read-out: IC50 of TKIs A549/DDP, TKI + 5 uM DZ1-SIM Amide, 72 h): 34.6 µM | IC50 ([1]; read-out: IC50 of TKIs A549/DDP, TKI + 6 uM DZ1-SIM Amide, 72 h): 7 µM | IC50 ([1]; read-out: IC50 of TKIs A549/DDP, TKI + 7 uM DZ1-SIM Amide, 72 h): 7 µM | IC50 ([1]; read-out: IC50 of TKIs A549/DDP, TKI alone, 72 h): 18.6 µM

— patent US20240261263A1, “COMPOUNDS AND METHODS TO SENSITIZE CANCER CELLS TO TYROSINE KINASE INHIBITORS” (Da Zen Theranostics, Inc., priority 2016, published 2024)
